Measurements from patent publication US9499612B2, “Antigen binding constructs” (Glaxo Group Limited, priority 2011, dated 2016).

Columns and labels:
[1] = molecular target: T1, rhVEGF165 (Homo sapiens, UniProt P15692); test: Modified MSD assay: binding to VEGF after pre-saturation with the other dAb format; settings: pre-saturation ≧3 μg/mL; FIG. 2A/2B
T1 construct: made in house; host or cells: HEK293 cells, transient transfection
T1 sequence (P15692 27-191 isoform P15692-4): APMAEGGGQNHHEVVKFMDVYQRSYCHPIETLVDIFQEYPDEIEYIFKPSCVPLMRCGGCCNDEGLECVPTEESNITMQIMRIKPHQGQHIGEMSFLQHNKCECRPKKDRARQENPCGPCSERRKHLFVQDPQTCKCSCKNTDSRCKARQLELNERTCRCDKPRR
Experimental: A MSD™ high bind 96 well plate (MSD™ L11XB-3) was coated with 3 μg/mL rhVEGF165 (sourced ‘in house’ from transient transfection of HEK293 cells) in PBS (25 μl/well), covered with a plate sealer and incubated overnight at 4° C. The next day the MSD™ plate was washed 3×300 μl/well with Tris wash buffer and blotted over a pad of tissue to remove excess wash buffer from the wells. The MSD™ plate was then blocked with 3% BSA in PBS (250 μl/well) and incubated shaking (750 RPM) at room temperature for 1 hour. […] The MSD™ plate was washed again before the addition of DMS1576 (25 μl/well, 0-100 ng/ml) and incubated shaking (750 RPM) at room temperature for 1 hour. […] Prior to measurement of the electrochemiluminescence in a MSD™ SECTOR IMAGER 6000™ MSD™ plate was washed and 150 μL/well of 2× Read Buffer T (MSD™ R92TC-1) was added.
The next day the MSD™ plate was washed 3×300 μl/well with Tris wash buffer and blotted over a pad of tissue to remove excess wash buffer from the wells. […] Prior to measurement of the electrochemiluminescence in a MSD™ Sector Imager 6000, the MSD™ plate was washed and 15011/well of 2× Read Buffer T (MSD™ R92TC-1) was added.

[2] = molecular target: T1, rhVEGF165; test: BIACORE T100 SPR binding to VEGF165 at 37° C.; settings: Table 11A
Experimental: (§1) The run was carried out at 37° C., using HBS-EP as the running buffer.
as §1, §1, §1, §1

B1: DMS30000: Vk Fc-dAb (SEQ ID NO:3 & 31); DT02-K-044-085 dAb, (GS(TVAAPSGS)x3) C-terminal linker (protein)
chain: [human IgG1 Fc and a few adjoining residues not shown]GSTVAAPSGSTVAAPSGSTVAAPSGSDIQMTQSPSSLSASVGDRVTITCRASQWIGPELKWYQQKPGKAPKLLIYHGSILQSGVPSRFSGSGSGTDFTLTISSLQPEDFATYYCQQYMYYPHTFGQGTKVEIKR
modifications: C-terminal Fc fusion of K-044-085 DAB (GS(TVAAPSGS)x3 Linker) Fc-dAb nucleic acid sequence identified using molecular biology techniques.
**Q.** Which “binding to VEGF165 pre-saturated with the other molecule (in words)” value [1] does the source give for B1 here?
**A.** bind VEGF165 which has been pre-saturated

**Q.** What about the Kd ([2]; 37 °C) of the same molecule?
**A.** Too tight

**Q.** What about the fit ([2]; fit to 1:1 model) of the same molecule?
**A.** ok
